# According to PubChem BioAssay (NCATS):
# Where “and” joins values, the source holds several entries; their conditions need not be identical. Identical values can stand only once. This list was built around the results that the source calls inconclusive (neither active nor inactive); the mix of calls is not that of the screen. For some of these results: Potencies beside an inconclusive call are fits to weak or partial responses and may not hold up. For some of these results: “Side channel” marks fits to a control or component signal instead of the main read-out. Some compounds were tested as several samples or in several runs, with calls that do not always agree. Calls of active or inactive are those of the source. Unless noted, calls come from the whole dose curve; as a rule, active = well fitted curve in the direction sought with a large enough effect; inconclusive = small, poorly fitted or top-dose-only effect, or another doubt; inactive = no such curve, though single readings can be large; an effect the other way counts as inactive or inconclusive.
# Legend:
# [1] = target: Peptidyl-prolyl cis-trans isomerase NIMA-interacting 1 (Homo sapiens) (UniProt Q13526); test: qHTS Validation Assay to Find Inhibitors of Pin1 (AID 504536; active = well fitted inhibition curve with a large enough effect in the polarisation, with a control signal flat, not every such curve was filed as active; inconclusive = small, poorly fitted or top-dose-only effect, or effect the other way; the % refers to the polarisation; note: potency is the fitted concentration of half-maximal effect;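 for activity, negative = inhibition: 0% = full Pin1 enzyme wells and -100% = no-enzyme wells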)
# Chain of UniProt Q13526 (Q13526 whole entry, looked up): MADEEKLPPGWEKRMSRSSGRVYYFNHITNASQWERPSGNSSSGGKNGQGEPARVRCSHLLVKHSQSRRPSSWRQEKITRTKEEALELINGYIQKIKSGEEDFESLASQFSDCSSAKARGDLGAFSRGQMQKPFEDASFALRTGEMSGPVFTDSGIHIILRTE
# How it was run: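 Fluorescence polarization competition: compounds (titration) displace HiFluor-488-labeled Pin1-1b peptide from Pin1 (0.3 uM final) in pH 7.5 HEPES buffer with DTT, 10 min at room temperature; %Activity normalized to no-enzyme wells, curves fitted.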
# [2] = target: Estrogen receptor (Homo sapiens) (UniProt P03372); test: qHTS assay for small molecule antagonists of estrogen receptor alpha signaling (AID 588513; active = well fitted curve in the direction sought with a large enough effect in the signal ratio, with a control signal flat, not every such curve was filed as active; inconclusive = small, poorly fitted or top-dose-only effect, or effect the other way, or a change in a side signal; inactive = no such curve, though single readings can be large or run the other way; the % refers to the signal ratio; note: % is set by controls: 0 for no effect and ±100 for the full control effect); settings: ER-alpha-UAS-bla HEK293, beta-lactamase ratio, antagonist mode; activity, negative = inhibition: at 76.9 µM (top of the series) unless noted
# Chain of UniProt P03372 (P03372 whole entry, looked up): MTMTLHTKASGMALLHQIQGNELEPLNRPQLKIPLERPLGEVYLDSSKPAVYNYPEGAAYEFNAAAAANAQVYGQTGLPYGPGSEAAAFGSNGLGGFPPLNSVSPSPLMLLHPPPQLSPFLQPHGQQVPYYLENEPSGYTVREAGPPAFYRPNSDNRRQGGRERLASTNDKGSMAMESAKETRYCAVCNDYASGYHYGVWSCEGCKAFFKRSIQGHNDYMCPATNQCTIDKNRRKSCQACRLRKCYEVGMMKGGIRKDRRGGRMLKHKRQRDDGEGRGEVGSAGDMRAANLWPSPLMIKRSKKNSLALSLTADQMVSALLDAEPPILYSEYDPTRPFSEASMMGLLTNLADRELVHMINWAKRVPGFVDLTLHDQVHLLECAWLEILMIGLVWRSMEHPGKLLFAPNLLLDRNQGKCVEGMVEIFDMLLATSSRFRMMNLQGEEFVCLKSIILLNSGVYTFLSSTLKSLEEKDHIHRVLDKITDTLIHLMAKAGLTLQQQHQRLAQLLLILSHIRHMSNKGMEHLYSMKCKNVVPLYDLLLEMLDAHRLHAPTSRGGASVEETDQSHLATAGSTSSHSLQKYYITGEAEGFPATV
# How it was run: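 Cells were plated at 5000/well and incubated 4 h at 37 C. Compounds were added as 1:2 dilution series, duplicates. 17-beta-estradiol (0.5nM final) was added for 18 h before CCF4 detection.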
# [3] = target: Estrogen receptor (Homo sapiens) (UniProt P03372); test: qHTS assay for small molecule agonists of estrogen receptor alpha signaling (AID 588514; calls by dose curve; note: nearly all actives have a fitted effect of over 70% in size; note: potency is the fitted concentration of half-maximal effect;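 for activation: 0% = vehicle only and 100% = reference agonist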); settings: ER-alpha-UAS-bla HEK293, beta-lactamase ratio, 18 h; activation: at 76.8 µM (top of the series), percent of full estradiol response, vehicle zero
# How it was run: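 Efficacy is expressed against 20 nM 17-beta-estradiol (100%) and DMSO basal (0%); EC50 from Hill equation. Assay: beta-lactamase reporter in ER-alpha-UAS-bla HEK 293 cells, 18 h compound incubation, CCF4 detection.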
# [4] = target: Ubiquitin carboxyl-terminal hydrolase 1 (Homo sapiens) (UniProt O94782); test: Inhibitors of USP1/UAF1: Pilot qHTS (AID 504865); note: potency is the fitted concentration of half-maximal effect;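 note: rhodamine fluorescence freed from ubiquitin-rhodamine substrate followed over time; nearly all actives have a fitted effect of over 35% in size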
# Chain of UniProt O94782 (O94782 whole entry, looked up): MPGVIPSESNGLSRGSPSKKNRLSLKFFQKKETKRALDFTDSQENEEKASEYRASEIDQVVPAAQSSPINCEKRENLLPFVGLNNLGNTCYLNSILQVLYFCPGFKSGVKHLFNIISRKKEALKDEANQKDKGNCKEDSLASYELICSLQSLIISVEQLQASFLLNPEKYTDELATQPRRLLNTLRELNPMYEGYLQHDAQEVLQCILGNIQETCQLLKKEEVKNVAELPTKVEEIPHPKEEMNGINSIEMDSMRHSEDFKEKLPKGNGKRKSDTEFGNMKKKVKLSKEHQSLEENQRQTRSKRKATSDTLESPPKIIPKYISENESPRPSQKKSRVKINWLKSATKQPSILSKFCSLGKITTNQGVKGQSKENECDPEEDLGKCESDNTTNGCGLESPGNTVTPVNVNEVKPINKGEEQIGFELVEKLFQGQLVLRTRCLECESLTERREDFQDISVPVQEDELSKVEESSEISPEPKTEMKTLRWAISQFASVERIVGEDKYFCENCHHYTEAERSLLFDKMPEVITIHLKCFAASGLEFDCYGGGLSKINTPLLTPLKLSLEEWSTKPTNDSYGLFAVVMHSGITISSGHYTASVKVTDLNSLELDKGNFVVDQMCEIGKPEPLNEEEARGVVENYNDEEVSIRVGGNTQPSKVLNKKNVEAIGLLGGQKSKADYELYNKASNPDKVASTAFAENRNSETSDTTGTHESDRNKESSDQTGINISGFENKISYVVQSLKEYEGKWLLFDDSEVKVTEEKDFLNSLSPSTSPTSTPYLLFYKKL
# How it was run: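 Kinetic fluorescence assay: 1nM USP1/UAF1, 15 min compound preincubation, then 150nM Ub-Rho; 480/540 nm.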
# [5] = Validation screen for small molecules that induce DNA re-replication in SW480 colon adenocarcinoma cells (AID 504364); note: potency is the fitted concentration of half-maximal effect
# How it was run: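 Image-based qHTS: compounds were incubated with SW480 cells for 48 hr, nuclei stained with Hoechst, and per-nucleus fluorescence intensity scanned to flag cells with excess DNA content.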
# [6] = qHTS for Inhibitors of ATXN expression: Validation of Cytotoxic Assay (AID 588349); note: potency is the fitted concentration of half-maximal effect
# How it was run: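 Titrated compounds are added to cultured HEK293 cells, which are then held at 37 degrees C for 72 hr; loss of intracellular ATP, measured with CellTiter Glo, indicates toxicity.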
# [7] = qHTS for Inhibitors of ATXN expression: Validation (AID 588378); note: nearly all actives have a fitted effect of over 75% in size; note: potency is the fitted concentration of half-maximal effect
# How it was run: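 Validation of ATXN2 expression inhibitors uses a cell-based luciferase fusion reporter in HEK293 cells, with 24 h compound exposure and paired viability (fluorescence) and reporter (luminescence) end-point reads.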
# [8] = target: Phosphoglycerate kinase, glycosomal (Trypanosoma brucei brucei) (UniProt P07378); test: qHTS Validation Assay to Find Inhibitors of Phosphoglycerate Kinase (AID 504547); settings: enzymatic PGK inhibition, coupled luminescence read-out; at 57.5 µM (top of the series);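 note: control wells lack PGK and mark full inhibition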
# Chain of UniProt P07378 (P07378 whole entry, looked up): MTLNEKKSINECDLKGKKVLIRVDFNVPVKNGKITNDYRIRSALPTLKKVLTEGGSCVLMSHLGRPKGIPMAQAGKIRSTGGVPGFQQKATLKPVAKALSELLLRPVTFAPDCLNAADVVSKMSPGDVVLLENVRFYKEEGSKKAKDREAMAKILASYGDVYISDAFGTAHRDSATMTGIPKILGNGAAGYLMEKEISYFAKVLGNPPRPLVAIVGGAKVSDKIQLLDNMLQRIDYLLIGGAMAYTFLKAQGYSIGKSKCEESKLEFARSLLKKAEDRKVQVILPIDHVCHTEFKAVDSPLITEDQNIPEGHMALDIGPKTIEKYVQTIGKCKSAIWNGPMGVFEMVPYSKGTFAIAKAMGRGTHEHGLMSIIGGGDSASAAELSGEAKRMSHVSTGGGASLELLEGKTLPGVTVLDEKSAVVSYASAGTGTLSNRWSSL
# How it was run: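 Compounds are pinned into the substrate/PGK mixture, and GAPDH (100nM final) is added to start the reaction by producing 1,3-BPG. After 60 minutes at room temperature, Kinase-Glo Plus is added and luminescence is measured 10 minutes later.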
# [9] = Inducers of the Endoplasmic Reticulum Stress Response (ERSR) in human glioma: Validation (AID 504836); settings: human glioma cells, ER stress response reporter; at 38.3 µM (top of the series); note: 0% is about no effect
# How it was run: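 Stably transfected U87-MG glioma cells carrying a GRP78-based luciferase sensor; 16 h compound incubation. Luminescence end-point read 10 min after Bright-Glo addition at room temperature.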
# Tags give direction and shape of the fitted curve or compound fluorescence and quenching.
compound,measurement,setting,value
CN(Cc1cnc2nc(N)nc(N)c2n1)c1ccc(C(=O)N[C@@H](CCC(=O)O)C(=O)O)cc1,Potency,[1],"inconclusive: 23.9 µM [quencher, side channel, single point]"
same,"activity, negative = inhibition",[2],inconclusive: -16.9%
same,activation,[3],inconclusive: -8.44%
CN1CCc2c(c3ccccc3n2Cc2ccccc2)C1,Potency,[4],"inconclusive: 39.8 µM [inhibitor, partial curve, poor fit]"
C[C@@H](O)[C@H]1C(=O)N2C(C(=O)O)=C(S[C@@H]3CN[C@H](C(=O)N(C)C)C3)[C@H](C)[C@H]12,Potency,[4],inactive
Cc1c(N(C)CS(=O)(=O)O)c(=O)n(-c2ccccc2)n1C,Potency,[4],"inconclusive: 35.5 µM [inhibitor, partial curve, poor fit]"
Cc1cc(/C=C/c2ccc3cc(N(C)C)ccc3[n+]2C)c(C)n1-c1ccccc1,Potency,[4],active: 44.7 µM
COc1cc2c(cc1OC)-c1cc(=Nc3c(C)cc(C)cc3C)n(C)c(=O)n1CC2,Potency,[1],"inconclusive: 0.006 µM [falling, full curve, poor fit]"
same,Potency,[4],"inconclusive: 44.7 µM [inhibitor, partial curve] and inconclusive: 31.6 µM [inhibitor, partial curve, poor fit]"
Nc1ncn([C@@H]2O[C@H](CO)[C@@H](O)[C@H]2O)c(=O)n1,Potency,[5],"inconclusive: 2.91 µM [activator, partial curve, poor fit]"
same,Potency,[6],"inconclusive: 31.6 µM [cytotoxic, partial curve, poor fit]"
same,Potency,[7],"inconclusive: 15.8 µM [inhibitor, partial curve, poor fit]"
same,Potency,[3],"inconclusive: 5.62 µM [side channel, rising, full curve, poor fit]"
CNNCc1ccc(C(=O)NC(C)C)cc1,Potency,[4],"inconclusive: 39.8 µM [inhibitor, partial curve, poor fit]"
CCN(CC)CCNC(=O)c1ccc(N)cc1,Potency,[1],"inconclusive: 0.301 µM [falling, full curve, poor fit]"
CC(C)(C)CC(C)(C)c1ccc(O)c(Cc2ccc(Cl)cc2Cl)c1,Potency,[4],"inconclusive: 44.7 µM [inhibitor, partial curve]"
Cc1nnc(SCC2=C(C(=O)O)N3C(=O)[C@@H](NC(=O)Cn4cnnn4)[C@H]3SC2)s1,Potency,[4],inactive
CC(=O)OCC1=C(C(=O)O)N2C(=O)[C@@H](NC(=O)Cc3cccs3)[C@H]2SC1,Potency,[1],"inconclusive: 21.3 µM [falling, partial curve, poor fit]"
CC12CC3CC(C)(C1)CC(N)(C3)C2,"activity, negative = inhibition",[8],inactive: 3.88%
CC(C)(Sc1cc(C(C)(C)C)c(O)c(C(C)(C)C)c1)Sc1cc(C(C)(C)C)c(O)c(C(C)(C)C)c1,Potency,[4],inactive
C=C1C(=CC=C2CCC[C@@]3(C)[C@@H]2CC[C@H]3[C@H](C)CCCC(C)C)C[C@@H](O)C[C@@H]1O,Potency,[4],active: 22.4 µM
OCCN1CCN(CCCN2c3ccccc3C=Cc3ccccc32)CC1,Potency,[5],inactive
same,Potency,[4],"inconclusive: 79.4 µM [inhibitor, partial curve, poor fit]"
same,Potency,[6],"inconclusive: 17.8 µM [cytotoxic, partial curve]"
same,Potency,[7],"inconclusive: 14.1 µM [inhibitor, partial curve]"
CNCCC(Oc1ccc(C(F)(F)F)cc1)c1ccccc1 (stereo unspecified),"activity, negative = inhibition",[8],inactive: 4.16%
same,Potency,[4],inactive
CN(C)CCCN1c2ccccc2Sc2ccc(Cl)cc21,Potency,[5],"inconclusive: 18.4 µM [activator, single point]"
same,Potency,[4],"inconclusive: 50.1 µM [inhibitor, partial curve, poor fit] and inconclusive: 39.8 µM [inhibitor, partial curve, poor fit]"
same,Potency,[6],"inconclusive: 25.1 µM [cytotoxic, partial curve, poor fit]"
same,Potency,[7],"inconclusive: 14.1 µM [inhibitor, partial curve, poor fit]"
C[C@]12CCC(=O)C[C@@H]1CC[C@@H]1[C@@H]2CC[C@]2(C)C=CC[C@@H]12,Potency,[4],inactive
COC(=O)Nc1nc2ccc(C(=O)c3cccs3)cc2[nH]1,Potency,[5],active: 0.116 µM
same,Potency,[6],"inconclusive: 0.199 µM [cytotoxic, full curve]"
COC(=O)[C@H]1[C@H]2C[C@@H]3c4[nH]c5ccccc5c4CCN3C[C@H]2C[C@@H](OC(=O)c2cc(OC)c(OC)c(OC)c2)[C@@H]1OC,Potency,[4],"inconclusive: 56.2 µM [inhibitor, partial curve, poor fit]"
NC(=O)c1ncn([C@@H]2O[C@H](CO)[C@@H](O)[C@H]2O)c1O,Potency,[1],"inconclusive: 0.953 µM [falling, partial curve, poor fit]"
Nc1ccc2cc3ccc(N)cc3nc2c1,Potency,[4],inactive
COc1ccc(CCN2CCC(Nc3nc4ccccc4n3Cc3ccc(F)cc3)CC2)cc1,Potency,[4],"inconclusive: 39.8 µM [inhibitor, partial curve, poor fit] and inconclusive: 35.5 µM [inhibitor, single point]"
CC#C[C@]1(O)CC[C@H]2[C@@H]3CCC4=CC(=O)CCC4=C3[C@@H](c3ccc(N(C)C)cc3)C[C@@]21C,Potency,[1],inactive
same,Potency,[4],"inconclusive: 50.1 µM [inhibitor, partial curve, poor fit]"
same,Potency,[6],"inconclusive: 28.2 µM [cytotoxic, partial curve, poor fit]"
same,Potency,[7],"inconclusive: 25.1 µM [inhibitor, partial curve, poor fit]"
CCCCCCCCCCCCCC[N+](C)(C)C,Potency,[4],active: 50.1 µM
O=S(=O)(O)c1ccc2c(N=Nc3ccc(S(=O)(=O)O)c4ccccc34)c(O)c(S(=O)(=O)O)cc2c1,Potency,[4],active: 17.8 µM
c1cnc(N2CCN(Cc3ccc4c(c3)OCO4)CC2)nc1,Potency,[1],"inconclusive: 0.0054 µM [falling, full curve, poor fit]"
same,Potency,[7],inactive
O=C1NCN(c2ccccc2)C12CCN(CCCC(c1ccc(F)cc1)c1ccc(F)cc1)CC2,Potency,[1],inactive
same,activation,[9],inactive: 0.483%
same,Potency,[4],"inconclusive: 28.2 µM [inhibitor, partial curve] and inconclusive: 56.2 µM [inhibitor, partial curve]"
COc1cc(NS(C)(=O)=O)ccc1Nc1c2ccccc2nc2ccccc12,Potency,[5],inactive
same,Potency,[4],"inconclusive: 63.1 µM [inhibitor, partial curve, poor fit] and inconclusive: 562 nM [inhibitor, partial curve, poor fit]"
same,Potency,[6],"inconclusive: 2.82 µM [cytotoxic, partial curve, poor fit]"
same,Potency,[7],active: 0.355 µM
COc1cc2ncnc(Nc3cccc(Br)c3)c2cc1OC,Potency,[4],"inconclusive: 56.2 µM [inhibitor, partial curve, poor fit]"
CNCCC=C1c2ccccc2CCc2ccccc21,"activity, negative = inhibition",[8],inactive: 3.43%
same,Potency,[6],"inconclusive: 28.2 µM [cytotoxic, single point]"
same,Potency,[7],active: 15.8 µM
CC(=O)[C@]1(O)Cc2c(O)c3c(c(O)c2[C@@H](O[C@H]2C[C@H](N)[C@H](O)[C@H](C)O2)C1)C(=O)c1ccccc1C3=O,Potency,[5],"inconclusive: 29.1 µM [activator, single point]"
same,Potency,[1],"inconclusive: 26.9 µM [fluorescent, side channel, partial curve]"
same,Potency,[4],active: 50.1 µM and active: 39.8 µM
same,Potency,[6],"inconclusive: 20 µM [cytotoxic, partial curve, poor fit]"
same,Potency,[7],"inconclusive: 0.1 µM [inhibitor, full curve, poor fit]"
CCCN1CCCC[C@H]1C(=O)Nc1c(C)cccc1C,Potency,[4],inactive
Cc1cc(N)c2cc(NC(=O)Nc3ccc4nc(C)cc(N)c4c3)ccc2n1,Potency,[4],active: 10 µM
COC(C(=O)C(O)C(C)O)C1Cc2cc3cc(OC4CC(OC5CC(O)C(O)C(C)O5)C(O)C(C)O4)c(C)c(O)c3c(O)c2C(=O)C1OC1CC(OC2CC(OC3CC(C)(O)C(O)C(C)O3)C(O)C(C)O2)C(O)C(C)O1 (stereo unspecified),Potency,[4],inactive
CCCCCCCCNC(C)C(O)c1ccc(SC(C)C)cc1 (stereo unspecified),Potency,[4],"inconclusive: 44.7 µM [inhibitor, partial curve]"
CCOc1nc2cccc(C(=O)O)c2n1Cc1ccc(-c2ccccc2-c2nn[nH]n2)cc1,Potency,[4],"inconclusive: 22.4 µM [inhibitor, full curve]"
OCCN1CCN(CCCN2c3ccccc3Sc3ccc(Cl)cc32)CC1,Potency,[5],"inconclusive: 25.9 µM [activator, single point]"
same,Potency,[6],"inconclusive: 20 µM [cytotoxic, partial curve, poor fit]"
same,Potency,[7],"inconclusive: 14.1 µM [inhibitor, partial curve, poor fit]"
CCN(CC)C(C)CN1c2ccccc2Sc2ccccc21 (stereo unspecified),Potency,[4],active: 44.7 µM
same,Potency,[7],"inconclusive: 28.2 µM [inhibitor, single point]"
CCC1=C[C@@H]2CN(C1)Cc1c([nH]c3ccccc13)[C@@](C(=O)OC)(c1cc3c(cc1OC)N(C)[C@@H]1[C@@](O)(C(=O)OC)[C@H](OC(C)=O)[C@]4(CC)C=CCN5CC[C@]31[C@@H]54)C2,Potency,[4],"inconclusive: 56.2 µM [inhibitor, partial curve, poor fit]"
CC[C@@]1(O)C(=O)OCc2c1cc1n(c2=O)Cc2cc3c(CN(C)C)c(O)ccc3nc2-1,Potency,[4],active: 79.4 µM
O=S(=O)(O)c1cc(O)c2c(N=Nc3ccc(Nc4ccccc4)c4c(S(=O)(=O)O)cccc34)cc(S(=O)(=O)O)cc2c1,Potency,[4],active: 11.2 µM
O=C(O)c1cc(=O)c2c3nc4ccccc4oc-3cc(=O)c2[nH]1,Potency,[4],"inconclusive: 56.2 µM [inhibitor, partial curve, poor fit]"
